# The campaign covered roughly 320,000 compounds. About 7,600 (2.4%) were called active. This list was built around the results that the source calls inconclusive (neither active nor inactive); the mix of calls is not that of the screen. The call rests on the fitted dose curve; in most records, active means well fitted activation curve with a large enough effect; inconclusive means small, poorly fitted or top-dose-only effect; inactive means no such curve, though single readings can be large or run the other way. Potencies of inconclusive entries are left out as doubtful fits.
# Experiment: qHTS Assay for NPC1 Promoter Activators; further: nearly all actives have a fitted effect of over 60% in size; on activation: % of control where 0% means no effect
# Conditions: Huh7 NPC1 promoter luciferase reporter, 24 h; series mostly up to 9.22 µM; activation: at the top concentration
# In short: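 Luciferase expression driven by the NPC1 promoter was measured in stably transfected Huh7 cells after a 24 h compound incubation, using a luciferase reagent and a luminescence read.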
# Potency means the concentration at half of the fitted maximal effect; tags describe the fitted curve by direction and shape.
SMILES,Potency,activation
O=C(NCC1CCCO1)c1ccc(-c2ccccc2Cl)o1 (configuration not stated),active: 3.55 µM,
O=C1CCCN1c1ccc(S(=O)(=O)N2CCN(c3ccccn3)CC2)cc1,,inactive: -5.44%
Cc1[nH]c2ccccc2c1C(=O)CSC(=S)N1CCCCC1,"inconclusive [activator, partial curve]",
O=C(Nc1ccc(NC(=O)C2CC2)nc1)c1ccco1,"inconclusive [activator, partial curve]",
O=C(Nc1ccc(Cl)cn1)Nc1cccs1,"inconclusive [activator, single point]",
COc1ccccc1C(=O)Nc1nc2ccccc2[nH]1,"inconclusive [activator, single point]",
COc1ccc(CN2CCN(Cc3c[nH]c4ccccc34)CC2CCO)c(F)c1 (configuration not stated),"inconclusive [activator, single point]",
CCOc1ccc(OCc2ccc(C(=O)Nc3cccnc3)cc2)cc1,"inconclusive [activator, partial curve]",
CC(C)C(NC(=O)c1ccccc1)C(=O)OCC(=O)N1CCN(c2ccccc2)CC1 (configuration not stated),,inactive: -1.1%
O=[N+]([O-])c1nn(-c2ccc3c(c2)OCCO3)n(O)c1=NCc1ccc(F)cc1,"inconclusive [activator, single point]",
O=C(Nc1ccc(N2CCOCC2)nc1)c1c(F)cccc1F,"inconclusive [activator, partial curve]",
COc1ccc(O)c(/C=N/N2CCOCC2)c1,"inconclusive [activator, single point]",
COC(=O)C1=C(C(=O)OC)[C@@H]2N(Cc3ccccc3)c3ccccc3[C@@]23C[C@@H](C(=O)OC)N=C3N1,,inactive: -3.49%
O=C(O)c1c2c(nc3ccc(S(=O)(=O)N4CCC(C(=O)NC5CCCCCC5)CC4)cc13)CCCC2,,inactive: -1.17%
Cc1ccc(-c2csc3ncn(/N=C/N(C)C)c(=O)c23)o1,,inactive: 2.4%
CCCCOc1ccc(-c2nnn(CCC(=O)N3CCOCC3)n2)cc1,"inconclusive [activator, partial curve]",
CN(c1ccc(O)cc1)S(=O)(=O)c1ccc2ccccc2c1,"inconclusive [activator, partial curve]",
COc1ccc(Nc2cc(Nc3ccccc3)ncn2)cc1,active: 2 µM,
CSC1=NC(NCCCO)c2c(sc3c2CC(C)(C)OC3)N1 (configuration not stated),,inactive: -1.79%
CCCCc1ccc(NC(=O)Nc2cc(C)nn2C)cc1,,inactive: -3.02%
CCC(=O)Nc1nc2ccc3sc(C)nc3c2s1,"inconclusive [activator, partial curve]",
Cc1cc(/C=C2\SC(=Nc3ccccc3)NC2=O)c(C)n1-c1ccc(S(N)(=O)=O)cc1,,inactive: -13%
O=C(O)CN1C(=O)/C(=C\c2cccc(OCc3ccc(Cl)cc3Cl)c2)SC1=S,"inconclusive [activator, partial curve]",
CN(C)c1ccc(/C=N/NC(=O)c2ccccc2)cc1,active: 2.82 µM,
CN(C)c1ccc(N=Cc2nc(-c3ccccc3)oc2OC(=O)c2cccc(Br)c2)cc1,"inconclusive [activator, single point]",
c1ccc(N2CC3CCc4ccccc4C3=N2)cc1 (configuration not stated),"inconclusive [activator, single point]",

SMILES,Potency,activation
CSCCC(=O)N1CCC(n2nccc2NC(=O)c2ccc3c(c2)OCO3)CC1,active: 2.82 µM,
CCOc1ccc(N(CC(=O)Nc2cc(C)cc(C)c2)S(C)(=O)=O)cc1,"inconclusive [activator, partial curve]",
O=S(=O)(c1cccc2c(I)cccc12)N1CCCNCC1,,inactive: -11.1% [at 46.1 µM]
O=C(NNC(=O)c1ccccc1O)c1ccc(Br)cc1,"inconclusive [activator, partial curve]",
Cc1cc(C)c2c(N)c(C(=O)Nc3ccc([N+](=O)[O-])cc3)sc2n1,active: 0.501 µM,
Cc1cccc(NC(=O)CSc2nc3ccccc3nc2N2CCCC2)c1C,,inactive: -11.2%
CCN(CC)C(=O)COC(=O)c1cc(-c2ccc(OC)cc2)nc2ccccc12,,inactive: 10.4%
CCC(=O)Nc1cccc(NC(=S)NC(=O)c2ccc(C)cc2)c1,active: 2 µM,
Cc1ccccc1NC(=O)c1onc2c1CCCC2,active: 4.47 µM,
C=CCn1c(C)cc(C(=O)CSc2nc3ccccc3c(=O)[nH]2)c1C,"inconclusive [activator, partial curve]",
CC1(C)CCc2cc(-c3ccnc(=S)[nH]3)ccc2O1,active: 0.447 µM,
CCCc1[nH]nc2c1C(c1ccc(OCCN3CCOCC3)c(OC)c1)C(C#N)=C(N)O2 (configuration not stated),"inconclusive [activator, partial curve]",
Cc1cccc2cc(/C=N/Nc3ccc(C(=O)O)cc3)c(Cl)nc12,active: 0.398 µM,
CCOC(=O)c1ccc2nc(NC(=O)c3ccco3)sc2c1,active: 0.891 µM,
CCN(CC)c1ccc(/C=N/NC(=O)OC)c(O)c1,,inactive: 20%
Cc1ccc(C(=O)/C=C/Nc2ccc([N+](=O)[O-])cc2Br)cc1,active: 0.447 µM,
C/C(=N\O)c1ccc2c3c([nH]c2c1)CCCC3,"inconclusive [activator, partial curve]",
CC(=O)Nc1nonc1NC(=O)c1ccc(C(C)(C)C)cc1,"inconclusive [activator, partial curve]",
O=C(O)c1cc(N/N=C/c2cccc3ccccc23)ccc1Cl,active: 0.794 µM,
Cc1cc(N=Nc2c(O)c3ccccc3[nH]c2=O)ccc1N=Nc1ccc(C(=O)N(C)C)cc1,"inconclusive [activator, partial curve]",
COC(=O)c1ccc(NC(=O)CCOc2ccccc2)cc1,,inactive: -2.98%
CCOC(=O)N1CCC(NC(=O)c2ccc3c(c2)ncn3C2CCCC2)CC1,"inconclusive [activator, partial curve]",
Cc1[nH]n(C(N)=S)c(=O)c1N=Nc1ccc([N+](=O)[O-])cc1Cl,"inconclusive [activator, partial curve]",
COc1ccc2c(Cl)c(C(=O)NCc3ccco3)sc2c1,"inconclusive [activator, single point]",
CC(C)c1ccc(OCC(=O)N2CCCCCC2)c(Br)c1,"inconclusive [activator, single point]",
COc1ccc(-c2csc(Nc3ccccc3)n2)cc1,active: 2.24 µM,

SMILES,Potency,activation
C/C(=C1/C(=O)N(c2ccc([N+](=O)[O-])cc2)N=C1c1ccccc1)N(C)C,"inconclusive [activator, single point]",
CCc1cc2c(=O)c(-c3cscn3)coc2cc1O,,inactive: 26.4%
O=C(NCC(=O)N(c1ccccc1)C(C(=O)NC1CCCCC1)c1cccnc1)c1ccco1 (configuration not stated),,inactive: 0.512%
Cc1ccc(COn2c(-c3ccc(Cl)cc3)nc3ccc([N+](=O)[O-])cc32)cc1,"inconclusive [activator, single point]",
Cc1c(C(=O)Nc2ccc(Br)cc2)cnn1C,"inconclusive [activator, single point]",
O=C(NC(=S)Nc1ccc(N2CCOCC2)cc1)c1ccccc1,"inconclusive [activator, partial curve]",
O=C(O)CN(CCc1ccccc1)S(=O)(=O)c1ccccc1,,inactive: -3.48%
COc1ccc(Nc2nc(C)cc(C)n2)cc1Cl,"inconclusive [activator, single point]",
Cc1ccc(NC(=O)Nc2ccc([N+](=O)[O-])cc2)nc1,"inconclusive [activator, single point]",
COC(=O)c1sccc1NC(=O)Nc1ccc(C(C)=O)cc1,,inactive: -0.243%
COc1cc(/C=N/NC(=O)c2ccc(CSc3nc4ccccc4[nH]3)cc2)cc(OC)c1OC,,inactive: 0.779%
CCOC(=O)C1(Cc2cccc(OC)c2)CCCN(C(=O)c2cc(C)oc2C)C1 (configuration not stated),"inconclusive [activator, full curve, poor fit]",
c1ccc(CSc2nnc(-c3ccco3)o2)cc1,"inconclusive [activator, single point]",
Nc1nc2ccccc2n1C(=O)CCc1ccccc1,"inconclusive [activator, partial curve]",
O=C(/C=C/c1ccc(O)c([N+](=O)[O-])c1)c1ccc2ccccc2c1,,inactive: 22.5%
COc1c(OC(C)=O)ccc(/C=C/c2ccc3cccc(OCc4ccccc4)c3n2)c1[N+](=O)[O-],"inconclusive [activator, single point]",
Cc1ccc(S(=O)(=O)N2CCN(C(=O)COC(=O)CCCOc3ccccc3)CC2)c(C)c1,,inactive: -7.41%
CCOC(=O)c1ccc(NC(=O)c2cc3ccccc3o2)cc1,"inconclusive [activator, partial curve]",
c1ccn(-c2ccc(N3CCOCC3)cc2)c1,"inconclusive [activator, single point]",
COc1ccc(S(=O)(=O)N2CCOC2CNC(=O)C(=O)NCCc2ccc(OC)c(OC)c2)cc1 (configuration not stated),,inactive: -1.6%
CCCCC(=O)Nc1ccc2c(c1)nc1n2CCOC1,"inconclusive [activator, single point]",
COC(=O)CSc1nc2cc(C)cc(C)c2cc1C#N,"inconclusive [activator, single point]",
COc1cc(OC)cc(C(=O)OCC(=O)c2cc(C)n(CC3CCCO3)c2C)c1 (configuration not stated),,inactive: 14.2%
CCn1cc(/C=N\NC(=O)C2(C)CC2(Cl)Cl)c(C)n1 (configuration not stated),,inactive: -1.69%
Cc1cccc2c1cnn2C(=O)Nc1cc(F)ccc1F,"inconclusive [activator, partial curve]",

# Source: PubChem BioAssay AID485313 (National Center for Advancing Translational Sciences (NCATS), 2010)
